# Test results reported in the supplement of paper PMC8728848.
# The list shows a part of the results.
# B1: CwpV (Clostridium difficile), B6EFG6 (protein)
# chain: MKIPKKIAAMLTVTMIAGSSTAGIASAQTVATNLTGQERYETAVKISQDGWKNADEVVIVNDSSIADALSATPFAKAKNAPILLTSKDKLNDKTKAEIQRLKAKKVYLIGGTSVLSTNIEKEIKDLKISFERISGAERYQTSLELAKKLDAISDVKKIAVVNGEKGLADAVSVGAPAAQNNMPVILADSKNGTAVADKFIKDAGITQSYVVGGESSISEAVKNKLPNSTRLGGTDRNDTNAKVIKEFYKKTDLKNAYVTKDGMNKQDQLIDALAVGVLGAKNQSPVVLVGKNLSASQKSLVNSKSFDKITKVGGNGNETAFNEMKSLQEVKTVEAKTISELKSAIDKATANDVINFKPTSEVKEAFTIQTDKAVTVNLNGTYTKTVTINMPNGDVNNYAKVDDVVIDDVKDGTFVNYGKITNLKVNDKNGAKIENNSKGEIGSLTVASGASQVKVTNGGKITTVTNNSKGTTIDNKGTISSVKGDNSPTISGNSPSSNSSGGSSSSGGSSGGSSGGSSSSKVGQIKFSATDKQIKMASGDKTVDPSDNTYILKLTNGTVKDGDVKANVKVAGLPSGLDYTAVGNRSANTITITVSGTTSQSIQNDLNNVSVLVKAGAVSGTGATDSIANTTFEIKKYVAAPAVGQLTFDATDKQIKMASGDKTVDPSDDTYVLTLTKGTAKDGDIKANVEVTGLPSGLDYTAEGDSSANTITIPVSGTASPAVQTDLDNVSVLVKAGAVSETTATDSAANATFEVKKYVAPAVGQLTFDATDKQIKMASGDKTVDPSDDTYVLTLTKGTAKDGDIKANVEVTGLPSGLDYTAEGDSSANTITITVSGTASQAVQTDLDNVSVLVKAGAVSETTATDSAANATFEVKKYVAPAIGQLTFDATDKQIKMASGDKTVDPSDDTYVLTLTKGTAKDGDIKANVEVTGLPSGLDYTAEGDSSANTITITVSGTASQAVQTDLDNVSVLVKAGAVSETTATDSAANATFEVKKHASDPISTIGKISSGLSSLFNILK
# Tests used:
# Test in all cases: glycan array binding signal (z-score within array); higher = stronger binding
# Details in all cases: glycan notation: IUPAC condensed, linker removed
# [1] = target: Neu5Ac(a2-3)Gal(b1-4)[Fuc(a1-3)]GlcNAc(b1-3)GalNAc
# Method in brief: (§1)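 Glycan array binding is given as a within-array Z-score, which can be read as non-binding when negative. The arrays, 3228 of them, came from the Consortium for Functional Glycomics database and were retained only where the protein sequence was available. Z-scores were averaged across arrays of the same protein sequence at different concentrations or buffers and across linkers.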
# [2] = target: Neu5Ac(a2-3)Gal(b1-4)[Fuc(a1-3)]GlcNAc(b1-6)[Gal(b1-3)]GalNAc
# Method in brief: as §1
# [3] = target: Neu5Ac(a2-3)Gal(b1-4)[Fuc(a1-3)]GlcNAc(b1-6)[Neu5Ac(a2-3)Gal(b1-3)]GalNAc
# Method in brief: as §1
# [4] = target: Neu5Ac(a2-3)Gal(b1-4)[Fuc(a1-3)]GlcNAc6S
# Method in brief: as §1
# [5] = target: Neu5Ac(a2-3)Gal6S(b1-4)GlcNAc
# Method in brief: as §1
# [6] = target: Neu5Ac(a2-3)Gal6S(b1-4)[Fuc(a1-3)]GlcNAc
# Method in brief: as §1
# Neu5Ac(a2-3)GalNAc = target: Neu5Ac(a2-3)GalNAc
# Method in brief: as §1
# [7] = target: Neu5Ac(a2-3)GalNAc(b1-4)GlcNAc
# Method in brief: as §1
# [8] = target: Neu5Ac(a2-3)[GalNAc(b1-4)]Gal(b1-4)Glc
# Method in brief: as §1
# [9] = target: Neu5Ac(a2-3)[GalNAc(b1-4)]Gal(b1-4)GlcNAc
# Method in brief: as §1
# [10] = target: Neu5Ac(a2-3)[GalNAc(b1-4)]Gal(b1-4)GlcNAc(b1-3)GalNAc
# Method in brief: as §1
# [11] = target: Neu5Ac(a2-3)[Neu5Ac(a2-6)]GalNAc
# Method in brief: as §1
# Neu5Ac(a2-6)Gal = target: Neu5Ac(a2-6)Gal
# Method in brief: as §1
# [12] = target: Neu5Ac(a2-6)Gal(b1-3)GlcNAc(b1-3)[Gal(b1-4)GlcNAc(b1-6)]Gal(b1-4)Glc
# Method in brief: as §1
# Neu5Ac(a2-6)Gal(b1-4)Glc = target: Neu5Ac(a2-6)Gal(b1-4)Glc
# Method in brief: as §1
# [13] = target: Neu5Ac(a2-6)Gal(b1-4)GlcNAc
# Method in brief: as §1
# [14] = target: Neu5Ac(a2-6)Gal(b1-4)GlcNAc(b1-2)Man(a1-3)Man(b1-4)GlcNAc(b1-4)GlcNAc
# Method in brief: as §1
# [15] = target: Neu5Ac(a2-6)Gal(b1-4)GlcNAc(b1-2)Man(a1-3)[Gal(b1-4)GlcNAc(b1-2)Man(a1-6)]Man(b1-4)GlcNAc(b1-4)GlcNAc
# Method in brief: as §1
# [16] = target: Neu5Ac(a2-6)Gal(b1-4)GlcNAc(b1-2)Man(a1-3)[GlcNAc(b1-2)Man(a1-6)]Man(b1-4)GlcNAc(b1-4)GlcNAc
# Method in brief: as §1
# [17] = target: Neu5Ac(a2-6)Gal(b1-4)GlcNAc(b1-2)Man(a1-3)[GlcNAc(b1-2)Man(b1-4)GlcNAc(b1-2)Man(a1-6)]Man(b1-4)GlcNAc(b1-4)GlcNAc
# Method in brief: as §1
# [18] = target: Neu5Ac(a2-6)Gal(b1-4)GlcNAc(b1-2)Man(a1-3)[Man(a1-6)]Man(b1-4)GlcNAc(b1-4)GlcNAc
# Method in brief: as §1
# [19] = target: Neu5Ac(a2-6)Gal(b1-4)GlcNAc(b1-2)Man(a1-3)[Neu5Ac(a2-6)Gal(b1-4)GlcNAc(b1-2)Man(a1-6)]Man(b1-4)GlcNAc(b1-4)GlcNAc
# Method in brief: as §1
# [20] = target: Neu5Ac(a2-6)Gal(b1-4)GlcNAc(b1-2)Man(a1-6)Man(b1-4)GlcNAc(b1-4)GlcNAc
# Method in brief: as §1
# [21] = target: Neu5Ac(a2-6)Gal(b1-4)GlcNAc(b1-2)Man(a1-6)[Gal(b1-4)GlcNAc(b1-2)Man(a1-3)]Man(b1-4)GlcNAc(b1-4)GlcNAc
# Method in brief: as §1
# [22] = target: Neu5Ac(a2-6)Gal(b1-4)GlcNAc(b1-2)Man(a1-6)[GlcNAc(b1-2)Man(a1-3)]Man(b1-4)GlcNAc(b1-4)GlcNAc
# Method in brief: as §1
# [23] = target: Neu5Ac(a2-6)Gal(b1-4)GlcNAc(b1-2)Man(a1-6)[Man(a1-3)]Man(b1-4)GlcNAc(b1-4)GlcNAc
# Method in brief: as §1
# [24] = target: Neu5Ac(a2-6)Gal(b1-4)GlcNAc(b1-3)Gal(b1-3)GlcNAc
# Method in brief: as §1
# [25] = target: Neu5Ac(a2-6)Gal(b1-4)GlcNAc(b1-3)Gal(b1-4)GlcNAc
# Method in brief: as §1
# [26] = target: Neu5Ac(a2-6)Gal(b1-4)GlcNAc(b1-3)Gal(b1-4)GlcNAc(b1-3)Gal(b1-4)GlcNAc
# Method in brief: as §1
# [27] = target: Neu5Ac(a2-6)Gal(b1-4)GlcNAc(b1-3)Gal(b1-4)[Fuc(a1-3)]GlcNAc(b1-3)Gal(b1-4)[Fuc(a1-3)]GlcNAc
# Method in brief: as §1
# [28] = target: Neu5Ac(a2-6)Gal(b1-4)GlcNAc(b1-3)GalNAc
# Method in brief: as §1
# [29] = target: Neu5Ac(a2-6)Gal(b1-4)GlcNAc6S
# Method in brief: as §1
# Neu5Ac(a2-6)GalNAc = target: Neu5Ac(a2-6)GalNAc
# Method in brief: as §1
# [30] = target: Neu5Ac(a2-6)GalNAc(b1-4)GlcNAc
# Method in brief: as §1
# [31] = target: Neu5Ac(a2-6)GlcNAc(b1-4)GlcNAc
# Method in brief: as §1
# [32] = target: Neu5Ac(a2-6)GlcNAc(b1-4)GlcNAc(b1-4)GlcNAc
# Method in brief: as §1
# Neu5Ac(a2-8)Neu5Ac = target: Neu5Ac(a2-8)Neu5Ac
# Method in brief: as §1
# [33] = target: Neu5Ac(a2-8)Neu5Ac(a2-3)Gal(b1-4)Glc
# Method in brief: as §1
# [34] = target: Neu5Ac(a2-8)Neu5Ac(a2-3)[Gal(b1-3)GalNAc(b1-4)]Gal(b1-4)Glc
# Method in brief: as §1
# [35] = target: Neu5Ac(a2-8)Neu5Ac(a2-3)[GalNAc(b1-4)]Gal(b1-4)Glc
# Method in brief: as §1
# [36] = target: Neu5Ac(a2-8)Neu5Ac(a2-8)Neu5Ac
# Method in brief: as §1
# [37] = target: Neu5Ac(a2-8)Neu5Ac(a2-8)Neu5Ac(a2-3)Gal(b1-4)Glc
# Method in brief: as §1
# [38] = target: Neu5Ac(a2-8)Neu5Ac(a2-8)Neu5Ac(a2-3)[GalNAc(b1-4)]Gal(b1-4)Glc
# Method in brief: as §1
# [39] = target: Neu5Ac(a2-8)Neu5Ac(a2-8)Neu5Ac(a2-8)Neu5Ac(a2-3)[GalNAc(b1-4)]Gal(b1-4)Glc
# Method in brief: as §1
# [40] = target: Neu5Ac(b2-6)Gal(b1-4)GlcNAc
# Method in brief: as §1
# Neu5Ac(b2-6)GalNAc = target: Neu5Ac(b2-6)GalNAc
# Method in brief: as §1
# [41] = target: Neu5Ac9Ac(a2-3)Gal(b1-3)GlcNAc
# Method in brief: as §1
# [42] = target: Neu5Ac9Ac(a2-3)Gal(b1-4)GlcNAc
# Method in brief: as §1
# [43] = target: Neu5Ac9Ac(a2-6)Gal(b1-4)GlcNAc
# Method in brief: as §1
# [44] = target: Neu5Gc(a2-3)Gal(b1-3)GlcNAc
# Method in brief: as §1
# [45] = target: Neu5Gc(a2-3)Gal(b1-3)[Fuc(a1-4)]GlcNAc
# Method in brief: as §1
# Neu5Gc(a2-3)Gal(b1-4)Glc = target: Neu5Gc(a2-3)Gal(b1-4)Glc
# Method in brief: as §1
# [46] = target: Neu5Gc(a2-3)Gal(b1-4)GlcNAc
# Method in brief: as §1
# [47] = target: Neu5Gc(a2-3)Gal(b1-4)[Fuc(a1-3)]GlcNAc
# Method in brief: as §1
# [48] = target: Neu5Gc(a2-6)Gal(b1-4)GlcNAc
# Method in brief: as §1
# Neu5Gc(a2-6)GalNAc = target: Neu5Gc(a2-6)GalNAc
# Method in brief: as §1
# [49] = target: Neu5Gc(b2-6)Gal(b1-4)GlcNAc
# Method in brief: as §1
binder,measurement,setting,value
B1,glycan array binding signal (z-score),[1],0.417
same,glycan array binding signal (z-score),[2],0.737
same,glycan array binding signal (z-score),[3],0.286
same,glycan array binding signal (z-score),[4],-0.323
same,glycan array binding signal (z-score),[5],-0.321
same,glycan array binding signal (z-score),[6],-0.342
same,glycan array binding signal (z-score),Neu5Ac(a2-3)GalNAc,-0.322
same,glycan array binding signal (z-score),[7],0.576
same,glycan array binding signal (z-score),[8],-0.277
same,glycan array binding signal (z-score),[9],-0.253
same,glycan array binding signal (z-score),[10],-0.232
same,glycan array binding signal (z-score),[11],-0.335
same,glycan array binding signal (z-score),Neu5Ac(a2-6)Gal,-0.318
same,glycan array binding signal (z-score),[12],-0.21
same,glycan array binding signal (z-score),Neu5Ac(a2-6)Gal(b1-4)Glc,-0.296
same,glycan array binding signal (z-score),[13],-0.341
same,glycan array binding signal (z-score),[14],-0.274
same,glycan array binding signal (z-score),[15],-0.163
same,glycan array binding signal (z-score),[16],-0.249
same,glycan array binding signal (z-score),[17],-0.314
same,glycan array binding signal (z-score),[18],-0.135
same,glycan array binding signal (z-score),[19],-0.216
same,glycan array binding signal (z-score),[20],-0.299
same,glycan array binding signal (z-score),[21],-0.34
same,glycan array binding signal (z-score),[22],-0.308
same,glycan array binding signal (z-score),[23],-0.302
same,glycan array binding signal (z-score),[24],-0.127
same,glycan array binding signal (z-score),[25],0.301
same,glycan array binding signal (z-score),[26],0.385
same,glycan array binding signal (z-score),[27],0.221
same,glycan array binding signal (z-score),[28],0.056
same,glycan array binding signal (z-score),[29],-0.155
same,glycan array binding signal (z-score),Neu5Ac(a2-6)GalNAc,-0.276
same,glycan array binding signal (z-score),[30],-0.063
same,glycan array binding signal (z-score),[31],-0.279
same,glycan array binding signal (z-score),[32],-0.284
same,glycan array binding signal (z-score),Neu5Ac(a2-8)Neu5Ac,-0.32
same,glycan array binding signal (z-score),[33],-0.287
same,glycan array binding signal (z-score),[34],-0.239
same,glycan array binding signal (z-score),[35],-0.287
same,glycan array binding signal (z-score),[36],-0.32
same,glycan array binding signal (z-score),[37],-0.222
same,glycan array binding signal (z-score),[38],-0.259
same,glycan array binding signal (z-score),[39],-0.269
same,glycan array binding signal (z-score),[40],-0.344
same,glycan array binding signal (z-score),Neu5Ac(b2-6)GalNAc,-0.286
same,glycan array binding signal (z-score),[41],-0.321
same,glycan array binding signal (z-score),[42],-0.03
same,glycan array binding signal (z-score),[43],-0.322
same,glycan array binding signal (z-score),[44],-0.293
same,glycan array binding signal (z-score),[45],-0.33
same,glycan array binding signal (z-score),Neu5Gc(a2-3)Gal(b1-4)Glc,-0.229
same,glycan array binding signal (z-score),[46],-0.046
same,glycan array binding signal (z-score),[47],-0.263
same,glycan array binding signal (z-score),[48],-0.292
same,glycan array binding signal (z-score),Neu5Gc(a2-6)GalNAc,-0.29
same,glycan array binding signal (z-score),[49],-0.322
